Patent US20230233569A1 (Revolution Medicines, Inc., priority 2020, published 2023)
For some of these results: At least one structure is not confirmed: it was looked up by name or label, or the drawing left a doubt. Some of these results come from one statement about several compounds together. Values belong to the compound of their own block, whether it stands above or below them.

Columns and labels:
NCI-H358 (K-Ras G12C) [1] = assay: CellTiter-Glo cell viability assay, 5-day treatment; type: cell-based, human; conditions: read-out: Additional H358 Cell Viability assay data (K-Ras G12C, IC50)
Protocol: (§1) Protocol: CellTiter-Glo® Cell Viability Assay
(§2) Note—The following protocol describes a procedure for monitoring cell viability of K-Ras mutant cancer cell lines in response to a compound of the invention. Other RAS isoforms may be employed, though the number of cells to be seeded will vary based on cell line used.
(§3) Test compounds (132.5 nL) were directly dispensed into the assay plates containing cells. […] On day 5, assay plates and their contents were equilibrated to room temperature for approximately 30 minutes. […] Luminescence was measured using the PerkinElmer Enspire. Data were normalized by the following: (Sample signal/Avg. DMSO)*100. The data were fit using a four-parameter logistic fit.
as §3, with “nl)” for “nL)”

AsPC-1 (K-Ras G12D) = assay: CellTiter-Glo cell viability assay; type: cell-based, human; conditions: 5-day treatment
Protocol: (§4) Determination of Cell Viability in RAS Mutant Cancer Cell Lines
as §1, §2, §3

NCI-H358 (K-Ras G12C) [2] = assay: CellTiter-Glo cell viability assay; type: cell-based, human; conditions: 5-day treatment
Protocol: as §4, §1, §2, §3

NCI-H358 cells = assay: Cell proliferation assay (Incucyte S3 confluence, up to 40 days); type: cell-based, human; conditions: Compound D 17 nM; trametinib 10 nM
Protocol: The plate was placed in the Incucyte S3 live cell analysis system (37° C., 5% CO2) and confluence was measured by recording images at 6-hour intervals for a maximum of 40 days, or until wells reached maximal confluence. Media and drug were replaced at 3-4 day intervals. Data are plotted as % confluence over the time course of the experiment for each single agent and respective combination (FIG. 5).

KRAS G13D = KRAS G13D (Homo sapiens, UniProt P01116+P62937, G13D); assay: Ras-Raf disruption / FRET / MOA assay (BRAF RBD); type: biochemical; conditions: with Cyclophilin A
Chain of KRAS G13D (P01116 1-169 isoform P01116-2 G13D limits assumed): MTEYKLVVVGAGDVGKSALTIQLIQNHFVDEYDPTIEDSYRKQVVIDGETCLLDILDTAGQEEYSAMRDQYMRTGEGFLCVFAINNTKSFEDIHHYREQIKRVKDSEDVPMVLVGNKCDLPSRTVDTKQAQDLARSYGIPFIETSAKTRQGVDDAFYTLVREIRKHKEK
Chain of KRAS G13D (P62937 whole entry, the tested form may be a part): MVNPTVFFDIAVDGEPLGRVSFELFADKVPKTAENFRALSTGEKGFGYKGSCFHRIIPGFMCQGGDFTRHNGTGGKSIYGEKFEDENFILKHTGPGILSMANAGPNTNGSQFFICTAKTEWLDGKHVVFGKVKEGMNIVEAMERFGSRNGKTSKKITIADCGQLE
From the text: (§5) Disruption of […] Ras-binding Domain (BRAF^RBD) Interaction with K-Ras by Compounds of the Invention (also Called a FRET Assay or an MOA Assay)
(§6) Note—The following protocol describes a procedure for monitoring disruption of K-Ras G12C (GMP-PNP) binding to BRAF^RBD by a compound of the invention. This protocol may also be executed substituting other Ras proteins or nucleotides, such as K-Ras G12D and K-Ras G13D.
(§7) The purpose of this biochemical assay was to measure the ability of test compounds to facilitate ternary complex formation between a nucleotide-loaded K-Ras isoform and Cyclophilin A; the resulting ternary complex disrupts binding to a BRAF^RBD construct, inhibiting K-Ras signaling through a RAF effector. Data is reported as IC50 values.
(§8) In assay buffer containing 25 mM HEPES pH 7.3, 0.002% Tween20, 0.1% BSA, 100 mM NaCl and 5 mM MgCl2, tagless Cyclophilin A, His6-K-Ras-GMPPNP, and GST-BRAF^RBD were combined in a 384-well assay plate at final concentrations of 25 μM, 12.5 nM, and 50 nM, respectively. Compound was present in plate wells as a 10-point 3-fold dilution series starting at a final concentration of 30 μM. After incubation at 25° C. for 3 hours, a mixture of anti-His Eu-W1024 and anti-GST allophycocyanin was then added to assay sample wells at final concentrations of 10 nM and 50 nM, respectively, and the reaction incubated for an additional 1.5 hours. […] Compounds that facilitate disruption of a K-Ras:RAF complex were identified as those eliciting a decrease in the TR-FRET ratio relative to DMSO control wells.

KRAS G13C [3] = target: T1, KRAS G13C (Homo sapiens, UniProt P01116+P62937, G13C); assay: Ras-Raf disruption / FRET / MOA assay (BRAF RBD); type: biochemical; conditions: with Cyclophilin A
T1 sequence (P01116 1-169 isoform P01116-2 G13C limits assumed): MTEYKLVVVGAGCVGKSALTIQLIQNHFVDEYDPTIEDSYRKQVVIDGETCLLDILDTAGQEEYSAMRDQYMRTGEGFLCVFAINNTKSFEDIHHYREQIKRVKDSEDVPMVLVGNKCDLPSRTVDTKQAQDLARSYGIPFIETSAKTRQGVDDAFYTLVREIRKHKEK
T1 sequence (P62937 whole entry): as the sequence (P62937 whole entry, the tested form may be a part) above
From the text: as §5, §6, §7, §8

KRAS G12D [4] = target: T2, KRAS G12D (Homo sapiens, UniProt P01116+P62937, G12D); assay: Ras-Raf disruption / FRET / MOA assay (BRAF RBD); type: biochemical; conditions: with Cyclophilin A
T2 sequence (P01116 1-169 isoform P01116-2 G12D limits assumed): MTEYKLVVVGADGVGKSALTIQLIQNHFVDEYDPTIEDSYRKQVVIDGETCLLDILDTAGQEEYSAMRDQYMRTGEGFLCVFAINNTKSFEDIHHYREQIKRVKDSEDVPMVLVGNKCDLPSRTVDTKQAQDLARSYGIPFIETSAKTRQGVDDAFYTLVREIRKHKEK
T2 sequence (P62937 whole entry): as the sequence (P62937 whole entry, the tested form may be a part) above
From the text: as §5, §6, §7, §8

KRAS G12S = KRAS G12S (Homo sapiens, UniProt P01116+P62937, G12S); assay: Disruption of BRAF RBD interaction with Ras (FRET / MOA assay, with Cyclophilin A); type: biochemical
Chain of KRAS G12S (P01116 1-169 isoform P01116-2 G12S limits assumed): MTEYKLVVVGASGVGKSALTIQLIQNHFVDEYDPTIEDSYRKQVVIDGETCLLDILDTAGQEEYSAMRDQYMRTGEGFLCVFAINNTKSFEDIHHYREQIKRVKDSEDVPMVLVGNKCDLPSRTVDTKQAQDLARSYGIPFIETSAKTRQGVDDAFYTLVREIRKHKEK
Chain of KRAS G12S (P62937 whole entry): as the sequence (P62937 whole entry, the tested form may be a part) above
From the text: (§9) This protocol may also be executed substituting other Ras proteins or nucleotides.
as §7
(§10) Compound was present in plate wells as a 10-point 3-fold dilution series starting at a final concentration of 30 μM. After incubation at 25° C. for 3 hours, a mixture of Anti-His Eu-W1024 and anti-GST allophycocyanin was then added to assay sample wells at final concentrations of 10 nM and 50 nM, respectively, and the reaction incubated for an additional 1.5 hours. […] Compounds that facilitate disruption of a K-Ras:RAF complex were identified as those eliciting a decrease in the TR-FRET ratio relative to DMSO control wells.
as §7, with “BRAF^RBDD” for “BRAF^RBD”

KRAS G13C [5] = target: T1, KRAS G13C; assay: as above; type: biochemical; conditions: KRAS G13C
From the text: as §9, §7, §10
as §7, with “BRAF^RBDD” for “BRAF^RBD”

KRAS G12D [6] = target: T2, KRAS G12D; assay: as above; type: biochemical
From the text: as §9, §7, §10
as §7, with “BRAF^RBDD” for “BRAF^RBD”

[7] = tested on: K-Ras G12C (NCI-H358 cells); assay: Potency assay: pERK (AlphaLISA SureFire or In-Cell Western); type: cell-based, human; conditions: H358 KRAS G12C
Protocol: The purpose of this assay is to measure the ability of test compounds to inhibit K-Ras in cells. […] This procedure measures a decrease in cellular pERK in response to test compounds.
NCI-H358 cells were grown and maintained using media and procedures recommended by the ATCC. On the day prior to compound addition, cells were plated in 384-well cell culture plates (40 μl/well) and grown overnight in a 37° C., 5% CO2 incubator. Test compounds were prepared in 10, 3-fold dilutions in DMSO, with a high concentration of 10 mM. On the day of assay, 40 nL of test compound was added to each well of cell culture plate using an Echo550 liquid handler (LabCyte®). […]
In some experiments, cellular pERK level was determined using the AlphaLISA SureFire Ultra p-ERK1/2 Assay Kit (PerkinElmer). […] Signal was read on an Envision plate reader (PerkinElmer) using standard AlphaLISA settings. […] Signal was plotted vs. the decadal logarithm of compound concentration, and IC50 was determined by fitting a 4-parameter sigmoidal concentration response model.
In other experiments, cellular pERK was determined by In-Cell Western. […] Signal was plotted vs. the decadal logarithm of compound concentration, and IC50 was determined by fitting a 4-parameter sigmoidal concentration response model. […]
In some experiments, cellular pERK level was determined using the AlphaLISA SureFire Ultra p-ERK1/2 Assay Kit (PerkinElmer). […]

Compound: C=CC(=O)N1CC(OC[C@H](C(=O)N[C@H]2Cc3cccc(c3)-c3ccc4c(c3)c(c(-c3cccnc3[C@H](C)OC)n4CC)CC(C)(C)COC(=O)[C@@H]3CCCN(N3)C2=O)C(C)C)C1 (racemic) [Example A483]
IC50 (NCI-H358 (K-Ras G12C) [1]): < 10 nM

Compound: CCn1c(-c2cccnc2[C@H](C)OC)c2c3cc(ccc31)-c1cc(O)cc(c1)C[C@H](NC(=O)[C@H](C(C)C)N(C)C(=O)[C@H]1CCN(C(=O)[C@H]3CN3)C1)C(=O)N1CCC[C@H](N1)C(=O)OCC(C)(C)C2 (single isomer, unassigned) [Example 43B]
IC50 (AsPC-1 (K-Ras G12D)): > 10 µM
IC50 (NCI-H358 (K-Ras G12C) [2]): 10 to 100 nM

Compound: CC(=O)Nc1cccc(-n2c(=O)n(C3CC3)c(=O)c3c(Nc4ccc(I)cc4F)n(C)c(=O)c(C)c32)c1 [trametinib]
effect on cell growth (confluence), single agent at EC50 (NCI-H358 cells): short period of growth inhibition, followed by proliferation

Compound: CCn1c(-c2cccnc2[C@H](C)OC)c2c3cc(ccc31)-c1cc(O)cc(c1)C[C@H](NC(=O)[C@H](C(C)C)N(C)C(=O)N1CCN(C(=O)[C@@H]3CN3)C(=O)C1)C(=O)N1CCC[C@H](N1)C(=O)OCC(C)(C)C2 [Example 197]
IC50 (KRAS G13D): 10 to 100 nM
IC50 (KRAS G13C [3]): 10 to 100 nM
IC50 (KRAS G12D [4]): 100 to 1000 nM
IC50 (AsPC-1 (K-Ras G12D)): 1 to 10 µM

Compound: C=CC(=O)N1CC[C@H](C(=O)N(C)[C@H](C(=O)N[C@H]2Cc3cc(O)cc(c3)-c3ccc4c(c3)c(c(-c3cc(C)cnc3[C@H](C)OC)n4CC)CC(C)(C)COC(=O)[C@@H]3CCCN(N3)C2=O)C(C)C)C1 [Example A167]
IC50 (NCI-H358 (K-Ras G12C) [1]): < 10 nM

More lines, now with the values ahead:

IC50 (NCI-H358 (K-Ras G12C) [1]): 100 to 1000 nM
Compound: C=CC(=O)N1CC[C@H](C(=O)N(C)[C@H](C(=O)N[C@H]2Cc3cccc(c3)-c3ccc4c(c3)c(c(-c3cnccc3[C@H](C)OC)n4CC)CC(C)(C)COC(=O)[C@@H]3CCCN(N3)C2=O)C(C)C)C1 [Example A114]

IC50 (KRAS G12S): 10 to 100 nM
IC50 (KRAS G13C [5]): 10 to 100 nM
IC50 (KRAS G12D [6]): 100 to 1000 nM
Compound: C=CC(=O)N1CC[C@H](C(=O)N(C)[C@H](C(=O)N[C@H]2Cc3cc(O)cc(c3)-c3ccc4c(c3)c(c(-c3cnccc3[C@H](C)OC)n4CC)CC(C)(C)COC(=O)[C@@H]3CCCN(N3)C2=O)C(C)C)C1 [Example A112]

EC50 [7]: < 5 µM
IC50 (NCI-H358 (K-Ras G12C) [1]): < 10 nM
Compound: C=CC(=O)N1CC[C@]2(COCCN2C(=O)N(C)[C@H](C(=O)N[C@H]2Cc3nc(cs3)-c3ccc4c(c3)c(c(-c3cccnc3[C@H](C)OC)n4CC)CC(C)(C)COC(=O)[C@@H]3CCCN(N3)C2=O)C(C)C)C1 (atropisomer, axis not shown) [Example A677]

IC50 (KRAS G12S): > 10000 nM
IC50 (KRAS G13C [5]): 1000 to 10000 nM
IC50 (KRAS G12D [6]): > 10000 nM
IC50 (NCI-H358 (K-Ras G12C) [1]): 100 to 1000 nM
Compound: C=CC(=O)N1CC(OC[C@H](C(=O)N[C@H]2Cc3cccc(c3)-c3ccc4c(c3)c(c(-c3cccnc3[C@H](C)OC)n4CC)CC(C)(C)COC(=O)[C@@H]3CCCN(N3)C2=O)C(C)C)C1 (racemic) [Example A484]
